Tested on: HCVpp expressing patient derived envelope glycoproteins
Assay: Entry of HCVpp expressing patient derived envelope glycoproteins into Huh-7 cells
Settings: Huh-7, 20 μM, 24 h, infectivity 24 h later (FIG. 9)
Text: To evaluate the activity of REV-ERB agonists against a wider spectrum of HCV strains, we used lentiviral pseudotypes expressing primary envelope glycoproteins cloned from patients with acute HCV infection. […] Luciferase reporter pseudoparticles expressing HCV envelope glycoproteins (HCVpp), or no-glycoprotein controls, were generated in 293T cells using a plasmid encoding a HIV provirus expressing luciferase and viral envelope glycoproteins from lab strains H77 and 1A38 and HCV patient derived clones.

Compound | HCV entry of lab strain and patient derived HCVpp
CCOC(=O)N1CCC(CN(Cc2ccc(Cl)cc2)Cc2ccc([N+](=O)[O-])s2)C1 (centres unmarked) [SR9009] | inhibit HCV entry not only of lab strains but also a wide range of patient derived HCV
CC(C)(C)OC(=O)CN(Cc1ccc(Cl)cc1)Cc1ccc([N+](=O)[O-])s1 [GSK4112] | inhibit HCV entry not only of lab strains but also a wide range of patient derived HCV

— patent US20210102215A1, “TREATMENT AND PREVENTION OF VIRAL INFECTION” (priority 2016, published 2021)
